According to patent US20230192795A1 (Hoffmann-La Roche, published 2023):

T1: IL-7Rα/IL-2Rγ on human T cells (human, UniProt P16871 21-459; P31785 23-369)
T1 sequence (looked up) 1: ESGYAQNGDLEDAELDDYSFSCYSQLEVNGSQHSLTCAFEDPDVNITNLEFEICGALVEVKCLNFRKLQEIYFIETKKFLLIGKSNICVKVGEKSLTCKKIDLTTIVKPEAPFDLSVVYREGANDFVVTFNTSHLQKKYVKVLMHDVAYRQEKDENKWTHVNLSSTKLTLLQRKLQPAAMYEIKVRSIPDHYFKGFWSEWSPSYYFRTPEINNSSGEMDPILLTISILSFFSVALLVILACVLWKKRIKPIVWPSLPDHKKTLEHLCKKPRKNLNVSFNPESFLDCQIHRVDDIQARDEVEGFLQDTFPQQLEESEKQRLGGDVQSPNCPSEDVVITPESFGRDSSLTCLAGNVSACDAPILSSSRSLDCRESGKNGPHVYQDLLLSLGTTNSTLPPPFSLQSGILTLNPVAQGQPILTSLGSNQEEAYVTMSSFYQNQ
T1 sequence (looked up) 2: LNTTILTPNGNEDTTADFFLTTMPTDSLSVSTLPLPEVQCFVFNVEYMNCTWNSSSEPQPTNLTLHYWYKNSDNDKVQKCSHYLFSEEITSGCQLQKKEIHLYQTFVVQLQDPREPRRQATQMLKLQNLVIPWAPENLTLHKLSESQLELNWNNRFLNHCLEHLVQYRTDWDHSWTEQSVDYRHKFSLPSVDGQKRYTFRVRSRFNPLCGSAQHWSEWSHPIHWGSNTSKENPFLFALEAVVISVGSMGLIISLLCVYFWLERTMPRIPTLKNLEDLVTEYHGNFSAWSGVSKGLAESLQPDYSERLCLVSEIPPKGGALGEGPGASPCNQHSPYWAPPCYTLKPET

B1: PD1-IL7-VAR3 (V15A) (other)
light: DIVMTQSPDSLAVSLGERATINCKASESVDTSDNSFIHWYQQKPGQSPKLLIYRSSTLESGVPDRFSGSGSGTDFTLTISSLQAEDVAVYYCQQNYDVPWTFGQGTKVEIKRTVAAPSVFIFPPSDEQLKSGTASVVCLLNNFYPREAKVQWKVDNALQSGNSQESVTEQDSKDSTYSLSSTLTLSKADYEKHKVYACEVTHQGLSSPVTKSFNRGEC
heavy 1: EVQLLESGGGLVQPGGSLRLSCAASGFSFSSYTMSWVRQAPGKGLEWVATISGGGRDIYYPDSVKGRFTISRDNSKNTLYLQMNSLRAEDTAVYYCVLLTGRVYFALDSWGQGTLVTVSSASTKGPSVFPLAPSSKSTSGGTAALGCLVKDYFPEPVTVSWNSGALTSGVHTFPAVLQSSGLYSLSSVVTVPSSSLGTQTYICNVNHKPSNTKVDKKVEPKSCDKTHTCPPCPAPEAAGGPSVFLFPPKPKDTLMISRTPEVTCVVVDVSHEDPEVKFNWYVDGVEVHNAKTKPREEQYNSTYRVVSVLTVLHQDWLNGKEYKCKVSNKALGAPIEKTISKAKGQPREPQVCTLPPSRDELTKNQVSLSCAVKGFYPSDIAVEWESNGQPENNYKTTPPVLDSDGSFFLVSKLTVDKSRWQQGNVFSCSVMHEALHNHYTQKSLSLSPGK
heavy 2: EVQLLESGGGLVQPGGSLRLSCAASGFSFSSYTMSWVRQAPGKGLEWVATISGGGRDIYYPDSVKGRFTISRDNSKNTLYLQMNSLRAEDTAVYYCVLLTGRVYFALDSWGQGTLVTVSSASTKGPSVFPLAPSSKSTSGGTAALGCLVKDYFPEPVTVSWNSGALTSGVHTFPAVLQSSGLYSLSSVVTVPSSSLGTQTYICNVNHKPSNTKVDKKV[human IgG1 Fc with changes left out]GGGGSGGGGSGGGGSDCDIEGKDGKQYESALMVSIDQLLDSMKEIGSNCLNNEFNFFKRHICDANKEGMFLFRAARKLRQFLKMNSTGDFDLHLLKVSEGTTILLNCTGQVKGRKPAALGEAQPTKSLEENKSLKEQKKLNDLCFLKRLLQEIKTCWNKILMGTKEH
notes: Format as m1; IL-7 with V15A; also called PD1-IL7 -V15A (Var3); PD1-IL7-VAR3 (VISA)
B2: PD1-IL7-VAR22 (I88K) (other)
light: B1 light
heavy 1: B1 heavy 1
heavy 2: EVQLLESGGGLVQPGGSLRLSCAASGFSFSSYTMSWVRQAPGKGLEWVATISGGGRDIYYPDSVKGRFTISRDNSKNTLYLQMNSLRAEDTAVYYCVLLTGRVYFALDSWGQGTLVTVSSASTKGPSVFPLAPSSKSTSGGTAALGCLVKDYFPEPVTVSWNSGALTSGVHTFPAVLQSSGLYSLSSVVTVPSSSLGTQTYICNVNHKPSNTKVDKKV[human IgG1 Fc with changes left out]GGGGSGGGGSGGGGSDCDIEGKDGKQYESVLMVSIDQLLDSMKEIGSNCLNNEFNFFKRHICDANKEGMFLFRAARKLRQFLKMNSTGDFDLHLLKVSEGTTKLLNCTGQVKGRKPAALGEAQPTKSLEENKSLKEQKKLNDLCFLKRLLQEIKTCWNKILMGTKEH
notes: Format as m1; IL-7 with I88K; also called PD1-IL7 - I88K(Var22)
B3: PD1-IL7-VAR23 (Q136A) (other)
light: B1 light
heavy 1: B1 heavy 1
heavy 2: EVQLLESGGGLVQPGGSLRLSCAASGFSFSSYTMSWVRQAPGKGLEWVATISGGGRDIYYPDSVKGRFTISRDNSKNTLYLQMNSLRAEDTAVYYCVLLTGRVYFALDSWGQGTLVTVSSASTKGPSVFPLAPSSKSTSGGTAALGCLVKDYFPEPVTVSWNSGALTSGVHTFPAVLQSSGLYSLSSVVTVPSSSLGTQTYICNVNHKPSNTKVDKKV[human IgG1 Fc with changes left out]GGGGSGGGGSGGGGSDCDIEGKDGKQYESVLMVSIDQLLDSMKEIGSNCLNNEFNFFKRHICDANKEGMFLFRAARKLRQFLKMNSTGDFDLHLLKVSEGTTILLNCTGQVKGRKPAALGEAQPTKSLEENKSLKEQKKLNDLCFLKRLLAEIKTCWNKILMGTKEH
notes: Format as m1; IL-7 with Q136A
B4: PD1-IL7-VAR28 (M147A) (other)
light: B1 light
heavy 1: B1 heavy 1
heavy 2: EVQLLESGGGLVQPGGSLRLSCAASGFSFSSYTMSWVRQAPGKGLEWVATISGGGRDIYYPDSVKGRFTISRDNSKNTLYLQMNSLRAEDTAVYYCVLLTGRVYFALDSWGQGTLVTVSSASTKGPSVFPLAPSSKSTSGGTAALGCLVKDYFPEPVTVSWNSGALTSGVHTFPAVLQSSGLYSLSSVVTVPSSSLGTQTYICNVNHKPSNTKVDKKV[human IgG1 Fc with changes left out]GGGGSGGGGSGGGGSDCDIEGKDGKQYESVLMVSIDQLLDSMKEIGSNCLNNEFNFFKRHICDANKEGMFLFRAARKLRQFLKMNSTGDFDLHLLKVSEGTTILLNCTGQVKGRKPAALGEAQPTKSLEENKSLKEQKKLNDLCFLKRLLQEIKTCWNKILAGTKEH
notes: Format as m1; IL-7 with M147A
B5: PD1-IL7-VAR25 (K139A) (other)
light: B1 light
heavy 1: B1 heavy 1
heavy 2: EVQLLESGGGLVQPGGSLRLSCAASGFSFSSYTMSWVRQAPGKGLEWVATISGGGRDIYYPDSVKGRFTISRDNSKNTLYLQMNSLRAEDTAVYYCVLLTGRVYFALDSWGQGTLVTVSSASTKGPSVFPLAPSSKSTSGGTAALGCLVKDYFPEPVTVSWNSGALTSGVHTFPAVLQSSGLYSLSSVVTVPSSSLGTQTYICNVNHKPSNTKVDKKV[human IgG1 Fc with changes left out]GGGGSGGGGSGGGGSDCDIEGKDGKQYESVLMVSIDQLLDSMKEIGSNCLNNEFNFFKRHICDANKEGMFLFRAARKLRQFLKMNSTGDFDLHLLKVSEGTTILLNCTGQVKGRKPAALGEAQPTKSLEENKSLKEQKKLNDLCFLKRLLQEIATCWNKILMGTKEH
notes: Format as m1; IL-7 with K139A
B6: PD1-IL7-VAR5 (V18A) (other)
light: B1 light
heavy 1: B1 heavy 1
heavy 2: EVQLLESGGGLVQPGGSLRLSCAASGFSFSSYTMSWVRQAPGKGLEWVATISGGGRDIYYPDSVKGRFTISRDNSKNTLYLQMNSLRAEDTAVYYCVLLTGRVYFALDSWGQGTLVTVSSASTKGPSVFPLAPSSKSTSGGTAALGCLVKDYFPEPVTVSWNSGALTSGVHTFPAVLQSSGLYSLSSVVTVPSSSLGTQTYICNVNHKPSNTKVDKKV[human IgG1 Fc with changes left out]GGGGSGGGGSGGGGSDCDIEGKDGKQYESVLMASIDQLLDSMKEIGSNCLNNEFNFFKRHICDANKEGMFLFRAARKLRQFLKMNSTGDFDLHLLKVSEGTTILLNCTGQVKGRKPAALGEAQPTKSLEENKSLKEQKKLNDLCFLKRLLQEIKTCWNKILMGTKEH
notes: Format as m1; IL-7 with V18A; also called PD1-IL7 -V18A (Var5)
B7: PD1-IL7-VAR6 (V18K) (other)
light: B1 light
heavy 1: B1 heavy 1
heavy 2: EVQLLESGGGLVQPGGSLRLSCAASGFSFSSYTMSWVRQAPGKGLEWVATISGGGRDIYYPDSVKGRFTISRDNSKNTLYLQMNSLRAEDTAVYYCVLLTGRVYFALDSWGQGTLVTVSSASTKGPSVFPLAPSSKSTSGGTAALGCLVKDYFPEPVTVSWNSGALTSGVHTFPAVLQSSGLYSLSSVVTVPSSSLGTQTYICNVNHKPSNTKVDKKV[human IgG1 Fc with changes left out]GGGGSGGGGSGGGGSDCDIEGKDGKQYESVLMKSIDQLLDSMKEIGSNCLNNEFNFFKRHICDANKEGMFLFRAARKLRQFLKMNSTGDFDLHLLKVSEGTTILLNCTGQVKGRKPAALGEAQPTKSLEENKSLKEQKKLNDLCFLKRLLQEIKTCWNKILMGTKEH
notes: Format as m1; IL-7 with V18K; also called PD1-IL7 -V18K (Var6)
B8: PD1-IL7-VAR17 (K81A) (other)
light: B1 light
heavy 1: B1 heavy 1
heavy 2: EVQLLESGGGLVQPGGSLRLSCAASGFSFSSYTMSWVRQAPGKGLEWVATISGGGRDIYYPDSVKGRFTISRDNSKNTLYLQMNSLRAEDTAVYYCVLLTGRVYFALDSWGQGTLVTVSSASTKGPSVFPLAPSSKSTSGGTAALGCLVKDYFPEPVTVSWNSGALTSGVHTFPAVLQSSGLYSLSSVVTVPSSSLGTQTYICNVNHKPSNTKVDKKV[human IgG1 Fc with changes left out]GGGGSGGGGSGGGGSDCDIEGKDGKQYESVLMVSIDQLLDSMKEIGSNCLNNEFNFFKRHICDANKEGMFLFRAARKLRQFLKMNSTGDFDLHLLAVSEGTTILLNCTGQVKGRKPAALGEAQPTKSLEENKSLKEQKKLNDLCFLKRLLQEIKTCWNKILMGTKEH
notes: Format as m1; IL-7 with K81A

Molecular target: T2, Human IL7Ra-IL2Rγ-Fc heterodimer (human, biotin on the avi tag)
T2 construct: Extracellular domains of IL-7Ralpha and IL-2Rgamma fused to Fc knob and Fc hole; also called hu IL7Ra-IL2Rγ-Fc avi biotin; human IL7Ra-IL2Rg-Fc biotin
Assay: SPR, captured from supernatant, 800 nM receptor-Fc single injection
Experimental: Surface Plasmon Resonacne (SPR) experiments were performed on a Biacore T200 with HBS-EP+ as running buffer (0.01 M HEPES pH 7.4, 0.15 M NaCl, 0.005% Surfactant P20 (BR-1006-69, GE Healthcare)). Fc specific antibodies (Roche internal) were directly immobilized by amine coupling on a CM5 chip (GE Healthcare). The PDI-IL7 constructs were captured from supernatants for 120 s at 100 nM. […] Only the extracellular domains were fused to Fc domains, produced in HEK Expi Cells and purified by two-step column chromatography including affinity purification via Protein A followed by size-exclusion chromatography. A single injection of 800 nM hu IL 7Ra-IL2Rγ-Fc heterodimer was passed over the ligand at 30 µ1/min for 240 sec to record the association phase. The dissociation phase was monitored for 360 s and triggered by switching from the sample solution to HBS-EP+. The chip surface was regenerated after every cycle using one injection of 10 mM glycine pH 2 for 60 sec. Bulk refractive index differences were corrected for by subtracting the response obtained on the reference flow cell 1. The response units after the capture step and at the end of the association phase were recorded and a ratio of binding to capture was calculated. The single binding curves were fitted in the dissociation phase to obtain a koff for ease of comparison (Biacore Evaluation software, GE Healthcare).
The ratio of binding to capture was calculated and the dissociation phase was fitted to a single curve to support the characterization of the off-rate.

koff	Binder
0.00183 s⁻¹	B1
0.00111 s⁻¹	B2
0.000766 s⁻¹	B3
0.000869 s⁻¹	B4
0.000506 s⁻¹	B5
0.00113 s⁻¹	B6
0.00115 s⁻¹	B7
0.000648 s⁻¹	B8

Molecular target: T1, IL-7Rα/IL-2Rγ on human T cells
Assay: cell-based or functional assay

fold increase in EC50, EC50 [PD1+]/EC50 PD1-IL7wt [PD1+]	Binder
1.7 fold	B1
0.6 fold	B2
1.1 fold	B6
1.9 fold	B7

Molecular target: human PD-1 on T cells (human, UniProt Q15116 25-288)
Assay: cell-based or functional assay

Chain of UniProt Q15116 (Q15116 25-288 limits assumed): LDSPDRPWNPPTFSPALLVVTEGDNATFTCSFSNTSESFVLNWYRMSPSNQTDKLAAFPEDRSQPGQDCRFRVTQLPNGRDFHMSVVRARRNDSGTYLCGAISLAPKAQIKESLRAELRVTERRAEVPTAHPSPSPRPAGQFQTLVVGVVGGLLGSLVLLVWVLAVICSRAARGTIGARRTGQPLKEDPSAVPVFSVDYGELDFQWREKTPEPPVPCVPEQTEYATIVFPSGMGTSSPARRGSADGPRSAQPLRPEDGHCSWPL

fold increase in EC50, EC50 [with PD1bl]/EC50 [PD1+]	Binder
10.5 fold	B1
1.7 fold	B2
5.5 fold	B6
8.3 fold	B7
